# Source: PubChem BioAssay AID1851 (National Center for Advancing Translational Sciences (NCATS), 2009)
# This list holds what a sample rich in hits left over. Inconclusive results are not listed. Active and inactive are the calls of the source. The call rests on the fitted dose curve; in most records, active means well fitted curve in the direction sought with a large enough effect; inconclusive means small, poorly fitted or top-dose-only effect, or effect the other way; inactive means no such curve, though single readings can be large or run the other way.
# Molecular target: Cytochrome P450 1A2 (Homo sapiens) (UniProt P05177)
# Chain of UniProt P05177 (P05177 whole entry, looked up): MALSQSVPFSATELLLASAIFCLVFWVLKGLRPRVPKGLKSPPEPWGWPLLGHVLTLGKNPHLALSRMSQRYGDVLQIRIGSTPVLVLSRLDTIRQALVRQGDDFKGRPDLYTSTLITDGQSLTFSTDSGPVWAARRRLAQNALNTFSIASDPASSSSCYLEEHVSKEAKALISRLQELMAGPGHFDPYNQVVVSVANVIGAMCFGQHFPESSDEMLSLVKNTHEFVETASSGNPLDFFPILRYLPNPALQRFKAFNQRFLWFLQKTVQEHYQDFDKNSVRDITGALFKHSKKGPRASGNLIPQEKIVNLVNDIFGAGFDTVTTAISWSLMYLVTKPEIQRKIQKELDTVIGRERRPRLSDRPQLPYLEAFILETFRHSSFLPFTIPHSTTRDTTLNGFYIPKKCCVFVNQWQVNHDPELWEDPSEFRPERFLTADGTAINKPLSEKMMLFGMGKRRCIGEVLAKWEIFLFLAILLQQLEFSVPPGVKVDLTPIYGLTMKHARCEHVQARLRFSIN
# Assay: Cytochrome panel assay with activity outcomes
# Conditions: recombinant CYP, pro-luciferin dealkylation, luminescence, p450-cyp1a2; series mostly up to 57.1 µM
# On the % scale 0 is the no-effect control and ±100 the full control effect.
Compound,AC50,"activity, negative = inhibition"
C[C@@H]1C[C@H]2[C@@H]3C[C@H](F)C4=CC(=O)C=C[C@@]4(C)[C@]3(F)[C@H](O)C[C@]2(C)[C@@]1(O)C(=O)CO,inactive,–
COC(=O)C1=C(C(=O)OC)C(c2cc(Cl)ccc2O)c2sc(=O)[nH]c2S1 (stereo not drawn),active: 4.47 µM,–
CCC[C@H]1C[C@H](C(=O)N[C@@H]([C@H]2O[C@@H](SC)[C@@H](O)[C@@H](O)[C@@H]2O)[C@H](C)Cl)N(C)C1,inactive,–
CCOc1cc(/C=N/n2cnnc2)ccc1OC(=O)c1cccc([N+](=O)[O-])c1,active: 5.01 µM,–
Nc1ccc(Sc2ccccc2CC(=O)O)cc1,inactive,–
O=S(=O)(c1ccccc1)N1CCN(S(=O)(=O)c2ccccc2)c2ccccc21,–,inactive: -19.9% [at 2.29 µM]
CCN(C(=O)CSc1nnc(Cc2cccc3ccccc23)n1N)C1CCS(=O)(=O)C1 (stereo not drawn),inactive,–
COc1ccc(C2=NN(C)C(=NCc3ccccc3)SC2)cc1,active: 14.1 µM,–
